# Reference: PubChem BioAssay AID1345083 (National Center for Advancing Translational Sciences (NCATS), 2018)
# The campaign covered roughly 94,000 compounds. About 6,200 (6.6%) were called active. The inconclusive results got no clear call from the source; some entries with a clear call stand among them for comparison. Calls come from the whole dose curve; as a rule, active = well fitted inhibition curve with a large enough effect; inconclusive = small, poorly fitted or top-dose-only effect; inactive = flat fitted curve, though single readings scatter. A potency beside an inconclusive call is a rough fit, not a confirmed value.
# Experiment: Cytotoxic Profiling in HEK 293 Cell Line of Diverse Libraries Using Quantitative High-Throughput Screening; note: nearly all actives have a fitted effect of over 60% in size
# Conditions: HEK 293 viability, ATP luminescence (CellTiter-Glo), 48-72 h; series mostly up to 115 µM
# Outline: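 HEK 293 cells at 250 cells/well were exposed to compounds by pintool transfer for 48 or 72 hr at 37 degree Celsius, 5% CO2. Viability was read as ATP-coupled luminescence with CellTiter-Glo after 10 min at room temperature.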
# Potency is the fitted concentration of half-maximal effect; tags give direction and shape of the fitted curve.
row,SMILES,Potency
1,O=S(=O)(NC[C@H]1C[C@@H]2CCN1C[C@@H]2CN1CCOCC1)c1cccs1,inactive
2,Cc1cccc(OCC(=O)N2[C@H]3CC[C@@H]2c2cnc(-c4ccccc4)nc2C3)c1,"inconclusive: 50.1 µM [inhibitor, partial curve, poor fit]"
3,CCC(CC)c1cc([C@H]2CN3CC[C@H]2C[C@@H]3CNC(=O)NCc2ccccc2)nc(-c2ccncc2)n1,active: 28.2 µM
4,COc1ccc2c(c1)C1(CCN(C(=O)C(C)(C)C)C1)C(=O)N2C (centres undefined),"inconclusive: 35.5 µM [inhibitor, partial curve]"
5,COCCOCC(=O)N1CCC2(CC1)c1nccn1-c1ccccc1CN2CC(C)C,inactive
6,C=C[C@H]1CN2CC[C@H]1C[C@@H]2CNC(=O)COc1ccccc1,inactive
7,C1CC(N(CC2CC2)C2CNC2)CCO1,inactive
8,Cc1nc(-c2ccccc2)cc([C@H]2CN3CC[C@H]2C[C@@H]3CNC(=O)c2cccs2)n1,active: 70.8 µM
9,CCOC(=O)[C@@H]1[C@H]2c3ccccc3N(C)C(=O)[C@H]2N(C(=O)NCc2ccccc2)[C@@H]1c1ccccc1,"inconclusive: 89.1 µM [inhibitor, partial curve, poor fit]"
10,C#C[C@H]1CN2CC[C@H]1C[C@@H]2CNCc1ccc(OC)cc1,"inconclusive: 141 µM [inhibitor, partial curve, poor fit]"
11,COc1ccc(CN2CCC3(CC(c4cccnc4)=NO3)C2)cc1 (centres undefined),"inconclusive: 100 µM [inhibitor, single point]"
12,O=C1CS(=O)(=O)C2(CCNCC2)N1c1ccccc1,inactive
13,COc1cc2c(cc1OCc1ccccc1)NC(=O)C21CCN(Cc2nccs2)CC1,"inconclusive: 63.1 µM [inhibitor, partial curve, poor fit]"
14,CCOC(=O)[C@H]1CN(C(=O)OCc2ccccc2)[C@]2(C)C(=O)N(C)c3ccccc3[C@H]12,"inconclusive: 39.8 µM [inhibitor, single point]"
15,CC(C)NC(=O)NC[C@H]1C[C@@H]2CCN1C[C@@H]2CN1CCC(Cc2ccccc2)CC1,active: 50.1 µM
16,O=C(Cc1ccc(F)cc1)N1CCN(CCn2nc3n(c2=O)CCCC3)CC1,inactive
17,CN1Cc2ccccc2-n2ccnc2C12CCN(C(=O)C1CCCCC1)CC2,inactive
18,CC[C@H]1CN2CC[C@H]1C[C@@H]2CNC(=O)N1CCOCC1,"inconclusive: 141 µM [inhibitor, partial curve, poor fit]"
19,CCN1CCCC12Cc1ccccc1CN(C(=O)Cc1ccccc1)C2 (centres undefined),inactive
20,Clc1ccc(N2CCN(CC3[C@H]4CNC[C@@H]34)CC2)nc1 (some centres undefined),"inconclusive: 50.1 µM [inhibitor, partial curve, poor fit]"
21,COc1cc2c(cc1Oc1ccccc1)NC(=O)C21CCN(Cc2cccnc2)CC1,active: 89.1 µM
22,COc1cccc(CC(=O)N2[C@H]3CC[C@@H]2c2cnc(-c4ccccc4)nc2C3)c1,"inconclusive: 89.1 µM [inhibitor, partial curve, poor fit]"

row,SMILES,Potency
1,Cc1nc(-c2ccccc2Br)cc([C@H]2CN3CC[C@H]2C[C@@H]3CNC(=O)Nc2ccc(Cl)cc2)n1,active: 22.4 µM
2,COc1cc2c(cc1Oc1cccc(N(C)C)c1)NC(=O)C21CCN(c2cnccn2)CC1,"inconclusive: 50.1 µM [inhibitor, partial curve, poor fit]"
3,C#C[C@H]1CN2CC[C@H]1C[C@@H]2COC(=O)Nc1ccc(OC(F)(F)F)cc1,"inconclusive: 63.1 µM [inhibitor, partial curve, poor fit]"
4,COc1cc2c(cc1Oc1ccccc1)NC(=O)C21CCN(Cc2cccc(O)c2)CC1,"inconclusive: 22.4 µM [inhibitor, full curve, poor fit]"
5,O=C(c1ccc2c(c1)OCO2)N1[C@H]2CC[C@@H]1c1cnc(-c3ccc(F)cc3)nc1C2,active: 44.7 µM
6,C=C[C@H]1CN2CC[C@H]1C[C@@H]2CNC(=O)Nc1cccc(C#N)c1,inactive
7,Cc1ccc(S(=O)(=O)NC[C@H]2C[C@@H]3CCN2C[C@@H]3CN2CCSCC2)cc1,inactive
8,CCOC(=O)[C@H]1CN(C(=O)CC2CCCC2)[C@]2(C)C(=O)N(CC3CC3)c3ccccc3[C@H]12,"inconclusive: 31.6 µM [inhibitor, partial curve, poor fit]"
9,Cn1nc(C2CCCCC2)cc1[C@H]1CN2CC[C@H]1C[C@@H]2CNC(=O)c1ccco1,"inconclusive: 112 µM [inhibitor, partial curve, poor fit]"
10,CCOC(=O)[C@@H]1[C@H]2c3ccccc3N(CCOC)C(=O)[C@H]2N(C(=O)CC(C)C)[C@@H]1c1ccccc1,active: 39.8 µM
11,Cc1nc(-c2ccco2)cc([C@H]2CN3CC[C@H]2C[C@@H]3CNC(=O)C2CC2)n1,inactive
12,COc1ccc(OC)c(S(=O)(=O)NC[C@H]2C[C@@H]3CCN2C[C@@H]3c2cc(-c3ccc(F)cc3)nn2C)c1,active: 28.2 µM
13,O=C(c1cocn1)N1C[C@H](c2cccc(F)c2F)[C@@H]2[C@H]1C1CCN2CC1,inactive
14,Cc1cccc(NC(=O)N2[C@H]3CC[C@@H]2c2cncnc2C3)c1,inactive
15,COc1cc2c(cc1OC1CCCC1)NC(=O)C21CCN(Cc2ccccc2O)CC1,active: 39.8 µM
16,COCCC(=O)N1CCC2(CC1)C(=O)Nc1cc(OCc3ccccc3)c(OC)cc12,"inconclusive: 100 µM [inhibitor, partial curve]"
17,COc1ccc(NC(=O)NC[C@H]2C[C@@H]3CCN2C[C@@H]3c2cc(-c3cccs3)nn2C)cc1,"inconclusive: 56.2 µM [inhibitor, partial curve, poor fit]"
18,O=C(COc1ccccc1)N1[C@H]2CC[C@@H]1c1cnc(-c3ccccc3)nc1C2,"inconclusive: 89.1 µM [inhibitor, single point]"
19,Cc1noc(C)c1S(=O)(=O)N1[C@H]2CC[C@@H]1c1cnc(-c3ccccc3)nc1C2,"inconclusive: 44.7 µM [inhibitor, partial curve, poor fit]"
20,Cc1ncc2c(n1)C[C@@H]1CC[C@H]2N1S(=O)(=O)c1ccccc1,inactive
21,O=C(Nc1ccccc1)C1=NO[C@@H]2CN(Cc3ccccn3)C[C@H]12,"inconclusive: 100 µM [inhibitor, partial curve]"
22,Cc1ccc2c(n1)N(C)[C@H](CO)CCN(C1CCCC1)C2,inactive

row,SMILES,Potency
1,COc1ccc(-c2cc([C@H]3CN4CC[C@H]3C[C@@H]4CNC(=O)NC3CCCCC3)n(C)n2)cc1,"inconclusive: 79.4 µM [inhibitor, partial curve, poor fit]"
2,CCCN1CC[C@@H](CO)N(C)c2nc(C)ccc2C1,"inconclusive: 158 µM [inhibitor, partial curve, poor fit]"
3,Cn1nc(C2CCCC2)cc1[C@H]1CN2CC[C@H]1C[C@@H]2CNS(=O)(=O)c1cccs1,"inconclusive: 89.1 µM [inhibitor, partial curve, poor fit]"
4,CCOC(=O)[C@H]1CN(C(=O)COc2ccccc2)[C@]2(C)C(=O)N(CC3CC3)c3ccccc3[C@H]12,"inconclusive: 35.5 µM [inhibitor, partial curve, poor fit]"
5,COc1cc2c(cc1OC1CCCC1)NC(=O)C21CCN(Cc2ccncc2)CC1,"inconclusive: 100 µM [inhibitor, partial curve]"
6,COc1cccc(CC(=O)N2[C@H]3CC[C@@H]2c2cnc(C)nc2C3)c1,inactive
7,CC(=O)Nc1ccc(-c2ccc(=O)n3c2[C@@H]2C[C@@H](CN(C(=O)c4cccs4)C2)C3)cc1,"inconclusive: 63.1 µM [inhibitor, full curve]"
8,COc1ccc(CC(=O)N2CC3(CCN(C)CC3)c3cc(OC)c(OCc4ccccc4)cc32)cc1,active: 31.6 µM
9,COc1ccc(-c2cc([C@H]3CN4CC[C@H]3C[C@@H]4CNC(=O)NCc3ccccc3)n(C)n2)cc1,"inconclusive: 56.2 µM [inhibitor, partial curve, poor fit]"
10,CC(C)C(=O)N1CC[C@@H]2COCCN(Cc3cccnc3)[C@@H]2C1,inactive
11,COC(=O)c1ccc(NC(=O)N2[C@H]3CC[C@@H]2c2cnc(-c4ccc(F)cc4)nc2C3)cc1,active: 44.7 µM
12,CCOC(=O)[C@H]1CN(C(=O)OCC(C)(C)C)[C@]2(C)C(=O)N(C)c3ccccc3[C@H]12,inactive
13,COc1cc2c(cc1OCc1ccncc1)NC(=O)C21CCN(C(=O)C2CCC2)CC1,"inconclusive: 100 µM [inhibitor, partial curve, poor fit]"
14,CCCSc1ncc(CN2CCC3(CCNCC3)C2)cn1,"inconclusive: 79.4 µM [inhibitor, single point]"
15,CN(Cc1ccccc1)C[C@H]1CN2CC[C@H]1C[C@@H]2CNC(=S)Nc1ccc(N(C)C)cc1,"inconclusive: 56.2 µM [inhibitor, partial curve, poor fit]"
16,COc1cc2c(cc1OCc1ccccc1)N(C(=O)c1ccc3[nH]ccc3c1)CC21CCN(C)CC1,active: 35.5 µM
17,CN(CCc1ccccn1)C[C@H]1CN2CC[C@H]1C[C@@H]2CNC(=O)c1ccc2c(c1)OCO2,inactive
18,CCCNC(=O)OC[C@H]1C[C@@H]2CCN1C[C@@H]2c1cc(-c2ccc(F)cc2)nn1C,"inconclusive: 112 µM [inhibitor, partial curve]"
19,COc1cc2c(cc1OCC1CC1)NC(=O)C21CCN(Cc2ccncc2)CC1,"inconclusive: 112 µM [inhibitor, single point]"
20,Cc1nc(-c2cccs2)cc([C@H]2CN3CC[C@H]2C[C@@H]3CO)n1,inactive
